Laboratory results: the RNAGym collection of RNA variant scans (doi:10.7554/elife.90254)
Read counts are not given, so values of variants with three or more changes are uncertain.

B1: LINE1-full (parent)
chain: UACGUAGGUGGUUUUCCCCUGAUAGUGCUAAGGGGGCCUGGAAGUUUGGACUGGGCAGAGCUCAACACAGCGUGGCAAAGUGGCUGUGGCUAGACUGCCUCUCUGGAUUCCUCGUCACUCAGCAGGGCAUCUCUGAGAGAAAUGCC

Variants of: B1
Experiment: self-cleavage, relative activity (ratio to wild type); higher = more cleavage; in vitro, sequencing; the parent is a self-cleaving ribozyme
In the case of A59G U132C A141G, the self-cleavage is reported as 0.07. A59G U132C A142G showed a self-cleavage of 0.3. Variant A59U A65U U85A U115C has a self-cleavage of 0.03. A59U A67G A69U U91C gave a self-cleavage of 0.21. A59U A67G U102C gave a self-cleavage of 0.14. A59U A67U A94G U119C U130C gave a self-cleavage of 0. A59U A69G A78G U112A A124G gave a self-cleavage of 0. In the case of A59U A77U U109A, the self-cleavage is reported as 0.77. A59U A79G A141U gave a self-cleavage of 0.52. A59U A79G C111U U134C showed a self-cleavage of 0.73. Variant A59U A92G U112A has a self-cleavage of 0. With A59U A94G A138G the self-cleavage was 2.34. With A59U A94G C116U G122A the self-cleavage was 2.1. In the case of A59U C68U U109C, the self-cleavage is reported as 0.1. For A59U C116U U132C C146A, the self-cleavage was 1.15. For A59U G93U A107G, the self-cleavage was 0.07. In the case of A59U U62A A140G, the self-cleavage is reported as 0. Work on A59U U62C A78G yielded a self-cleavage of 0.08. A59U U62C A142G gave a self-cleavage of 0.03. For A59U U81A G114A, the self-cleavage was 1.04. Work on A59U U81G U100C yielded a self-cleavage of 0.71. A59U U85C U102C U132C gave a self-cleavage of 0. A59U U85G U112C gave a self-cleavage of 0.1. For A59U U100C A124G A141U, the self-cleavage was 2.16. A59U U100C U115C gave a self-cleavage of 0.88. A59U U109C U119C A121G showed a self-cleavage of 0.68. A59U U119C U132A A138G gave a self-cleavage of 0.44. In the case of G60A A65G U134C, the self-cleavage is reported as 0.05. With G60A A67U A78G the self-cleavage was 0.05. Variant G60A A67U C145U has a self-cleavage of 0.03. G60A A77G G82U U85C gave a self-cleavage of 0.04. For G60A A77G U102C, the self-cleavage was 0.07. In the case of G60A A124U A140G, the self-cleavage is reported as 0.06. Work on G60A C76U A77G U91C U112C yielded a self-cleavage of 0.02. G60A U73A A92G gave a self-cleavage of 0.01. G60A U102C C131A A140G showed a self-cleavage of 0.04. With G60U G97U U115C A129U the self-cleavage was 0.01. For C61A A65G U100C, the self-cleavage was 0.06. C61A A65U U81A A92G gave a self-cleavage of 0.11. Work on C61A A79U A92U C128U A138U yielded a self-cleavage of 0.06. Work on C61A A92G U130C yielded a self-cleavage of 0.07. Work on C61A U87C A117G yielded a self-cleavage of 0.06. C61G A64U U96C U134C showed a self-cleavage of 0.03. Variant C61U A64G A107G has a self-cleavage of 0.13. With C61U A94G U115C the self-cleavage was 0.03. With C61U U96A C113U the self-cleavage was 0.03. Variant C61U U108C C120U has a self-cleavage of 0.02. With U62A A65C U130G the self-cleavage was 0.04. In the case of U62A A67G C84U A107G, the self-cleavage is reported as 0.15. Work on U62A A67U U81A U85C U104C yielded a self-cleavage of 0.21. With U62A A69G U102G the self-cleavage was 0.51. Work on U62A A69U A117G yielded a self-cleavage of 0.14. U62A A77G A78G gave a self-cleavage of 0.1. U62A A77G U104C showed a self-cleavage of 0.06. Work on U62A A79U U108C yielded a self-cleavage of 0.03. Work on U62A A121U C123U U143A yielded a self-cleavage of 0.04. For U62A C68U U100C A138G, the self-cleavage was 0.04. U62A C71A U87C U96C gave a self-cleavage of 0.04. U62A G89C U96C U104C C116U A124G A140G gave a self-cleavage of 0. Variant U62A G106A A129G has a self-cleavage of 0.04. U62A U73A U112C gave a self-cleavage of 0.06. Work on U62A U73C U87C A140G yielded a self-cleavage of 0. U62A U81A U104A gave a self-cleavage of 0.02. For U62A U85A A117U U134A, the self-cleavage was 0.03. U62A U85C A129U A138G showed a self-cleavage of 0.15. For U62A U91C G127U, the self-cleavage was 0.05. U62A U102C A141G gave a self-cleavage of 0.1. With U62A U108C A136G the self-cleavage was 0.44. For U62A U108C G139A, the self-cleavage was 0.01. For U62A U109C U115C, the self-cleavage was 0.06. With U62A U112C C131G the self-cleavage was 0.04. For U62A U115C A140G, the self-cleavage was 0.01. For U62C A64G A121G A142G, the self-cleavage was 0. U62C A64G U100C gave a self-cleavage of 0.2. For U62C A64U U96G C120U, the self-cleavage was 0.07. Variant U62C A64U U109C has a self-cleavage of 0.08. Work on U62C A64U U109C C113U yielded a self-cleavage of 0.05. For U62C A65U A69G G88A U108C A136G A140G, the self-cleavage was 0. In the case of U62C A67G A121U U130C, the self-cleavage is reported as 0. In the case of U62C A67G U109A U115C A121U, the self-cleavage is reported as 0. Variant U62C A69C U87A has a self-cleavage of 0.09. U62C A69G A79G G93A G126A U143C gave a self-cleavage of 0.01. U62C A69G U81A U119A gave a self-cleavage of 0.12. Variant U62C A69U U100C has a self-cleavage of 0.11. Variant U62C A77G A136G has a self-cleavage of 0. U62C A77G U134G gave a self-cleavage of 0.05. With U62C A77U A121C the self-cleavage was 0.02. With U62C A78G G114A the self-cleavage was 0.02. In the case of U62C A78G U100C A121C, the self-cleavage is reported as 0. In the case of U62C A78G U102C, the self-cleavage is reported as 0.18. In the case of U62C A78U A138G, the self-cleavage is reported as 0.02. In the case of U62C A79G A138G, the self-cleavage is reported as 0.1. U62C A79G G125U showed a self-cleavage of 0. With U62C A79G U85C the self-cleavage was 0. In the case of U62C A79G U134G, the self-cleavage is reported as 0.1. With U62C A79U C99A U130C A138U the self-cleavage was 0.03. Variant U62C A79U U85C has a self-cleavage of 0.06. U62C A92G A142G showed a self-cleavage of 0.14. For U62C A94U U102C, the self-cleavage was 0.04. With U62C A107G A140G the self-cleavage was 0.08. For U62C A117G A138G U143C, the self-cleavage was 0. For U62C A117G U132C, the self-cleavage was 0. U62C A117U G139C gave a self-cleavage of 0.05. In the case of U62C A121G A136G, the self-cleavage is reported as 0.05. In the case of U62C A138G A140G, the self-cleavage is reported as 0.14. U62C A138G A140U showed a self-cleavage of 0.05. With U62C C66U U87C U109C the self-cleavage was 0.05. With U62C C66U U100C the self-cleavage was 0.11. U62C C71G U73A U87A A124G U134C showed a self-cleavage of 0.28. With U62C C84U U85C the self-cleavage was 0. Variant U62C C90A U132C has a self-cleavage of 0.02. For U62C C95U U119C, the self-cleavage was 0.03. With U62C G72A C99U C128U A129G the self-cleavage was 0.01. For U62C G74A U109A A142G, the self-cleavage was 0.02. U62C G80C A136G A140G gave a self-cleavage of 0.06. U62C G83A U85C A121C A141G showed a self-cleavage of 0.03. In the case of U62C G83A U104C, the self-cleavage is reported as 0.03. Variant U62C G86A U109C A141U has a self-cleavage of 0.03. Variant U62C G89A U96A has a self-cleavage of 0. With U62C G89U A136G the self-cleavage was 0.04. U62C G89U U115C showed a self-cleavage of 0.03. U62C G93A U115C gave a self-cleavage of 0.02. In the case of U62C G114A A142G, the self-cleavage is reported as 0.07. For U62C U73A A121U A140G, the self-cleavage was 0.05. For U62C U73A C103A A121G, the self-cleavage was 0.01. In the case of U62C U73A U81A, the self-cleavage is reported as 0.02. With U62C U73C A124U the self-cleavage was 0.08. For U62C U73C G127A, the self-cleavage was 0.03. With U62C U81C U96A U112C the self-cleavage was 0.06. U62C U85A A107G showed a self-cleavage of 0.08. With U62C U85A U100C the self-cleavage was 0.04. U62C U85C U104C gave a self-cleavage of 0. Variant U62C U85C U130A has a self-cleavage of 0.09. Variant U62C U87A A136G has a self-cleavage of 0.02. Variant U62C U87A A138G has a self-cleavage of 0.03. For U62C U87C U102C, the self-cleavage was 0. U62C U87G U112A showed a self-cleavage of 0.03. For U62C U96C U108C, the self-cleavage was 0. With U62C U96C U132C the self-cleavage was 0.08. U62C U100C G105U U134G gave a self-cleavage of 0. U62C U100C U102C A138G showed a self-cleavage of 0.13. For U62C U100C U130A A136G, the self-cleavage was 0.06. With U62C U104A C116G A140G the self-cleavage was 0.05. U62C U108C C145A showed a self-cleavage of 0.07. U62C U108C U115C gave a self-cleavage of 0. U62C U108C U134A gave a self-cleavage of 0. U62C U109A A140G gave a self-cleavage of 0.05. Work on U62C U112A A117G yielded a self-cleavage of 0. U62C U112C U130C gave a self-cleavage of 0. Variant U62C U115C A117U has a self-cleavage of 0.05. U62C U115C A138G gave a self-cleavage of 0. U62C U115G U119C gave a self-cleavage of 0.26. For U62C U119C A121G U134C, the self-cleavage was 0.6. Work on U62G A69C U104C yielded a self-cleavage of 0.54. Work on U62G A77U G93A yielded a self-cleavage of 0.04. With U62G A78G U112C the self-cleavage was 0. With C63A A64G A65G U91A the self-cleavage was 0.03. Variant C63A A65C U96C A142G has a self-cleavage of 0.05. For C63U A65G A78G U87A, the self-cleavage was 0.03. C63U A65G A79G gave a self-cleavage of 0. Work on C63U A94G U100C A140G yielded a self-cleavage of 0.03. C63U A124G A141G showed a self-cleavage of 0.33. Work on C63U G72A U132C yielded a self-cleavage of 0.38. For C63U G74U A141G, the self-cleavage was 0.38. In the case of C63U U115C A140G, the self-cleavage is reported as 0.52. C63U U119C A124G gave a self-cleavage of 0.31. A64C A65U A141G gave a self-cleavage of 0.05.
